The text below walks through data of the supplement of paper PMC8748497.

The other results are listed elsewhere or left out.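 Rule for the calls: active = GRHL reporter fold change of at least 2 over DMSO at 10 µM; inactive = below 2-fold.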 Single values are uncertain, as repeats are few or missing.
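Note: stable HEK293 line carrying repeated GRHL consensus sites upstream of a minimal promoter driving luciferase, luminescence read 24 h post-treatment, normalized to 0.5% DMSO vehicle wells.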

For the assay, the system named is HEK293 GRHL-luciferase reporter. Description: GRHL luciferase reporter activity, fold change over DMSO control; higher = stronger GRHL reporter activation. The settings on record: 10 µM; 24 h.
For `CC(C)[N+]1(C)[C@@H]2CC[C@H]1C[C@@H](OC(=O)C(CO)c1ccccc1)C2` (some centres undefined), the “GRHL luciferase reporter activity” value is inactive: 0.995.

For `CC(=O)CC(=O)CCC(=O)O`, the “GRHL luciferase reporter activity” value was inactive: 0.981.

In the case of `O=C(O)[C@@H](S)[C@@H](S)C(=O)O`, the “GRHL luciferase reporter activity” value was inactive: 0.822.

As to `CC(C)(C)CC(C)(C)c1ccc(OCCOCC[N+](C)(C)Cc2ccccc2)cc1`, the “GRHL luciferase reporter activity” value is inactive: 0.615.

In the case of `COc1cc([C@@H]2c3cc4c(cc3[C@@H](O[C@@H]3O[C@@H]5CO[C@@H](C)O[C@H]5[C@H](O)[C@H]3O)[C@H]3COC(=O)[C@H]23)OCO4)cc(OC)c1O`, the “GRHL luciferase reporter activity” value is inactive: 0.146.

For `CCN(CC)CCCC(C)Nc1c2ccc(Cl)cc2nc2ccc(OC)cc12` (centres undefined), the “GRHL luciferase reporter activity” value is active: 2.99.

As to `C=C1CCC2C(CC2(C)C)C(=O)CCC1O` (centres undefined), the “GRHL luciferase reporter activity” value was inactive: 0.911.

On to `CCCCCCCCNC(C)C(O)c1ccc(SC(C)C)cc1` (centres undefined), for which the “GRHL luciferase reporter activity” value was inactive: 0.997.

Turning to `OC1OC[C@@H](O)[C@H](O)[C@H]1O` (some centres undefined), the “GRHL luciferase reporter activity” value was inactive: 0.938.

Turning to `CC(=O)[C@@]1(O)CC[C@H]2[C@@H]3C=C(Cl)C4=CC(=O)[C@@H]5C[C@@H]5[C@]4(C)[C@H]3CC[C@@]21C`, the “GRHL luciferase reporter activity” value was inactive: 0.938.

On to `O=C(CCc1ccc(O)cc1)c1c(O)cc(O)cc1O`, for which the “GRHL luciferase reporter activity” value was inactive: 1.54.

With `CC1(C)CC[C@]2(C)CC[C@]3(C)C(=CC[C@@H]4[C@@]5(C)CC[C@H](OC(=O)c6ccccc6)C(C)(C)[C@@H]5CC[C@]43C)[C@@H]2C1` [beta-AMYRIN BENZOATE], the “GRHL luciferase reporter activity” value was inactive: 1.23.

In the case of `O=C(/C=C/C(=O)Oc1ccccc1C(=O)O)Oc1ccccc1C(=O)O`, the “GRHL luciferase reporter activity” value is inactive: 1.02.

Regarding `O=C(O)c1cc(=O)[nH]c(=O)[nH]1`, the “GRHL luciferase reporter activity” value was inactive: 0.914.
